Data as given in article PMC4336329 (PLoS ONE, 2015).
Among all 310,000 compounds or so, about 2,200 (0.71%) showed an effect of 50% or more. Effects have a minus sign here. The list shows a part of the results.

The compounds below were run against human ether-à-go-go-related gene (hERG) potassium channel (human, UniProt Q12809) (assay: primary screen, population patch clamp on CHO cells stably expressing hERG).
Sequence of human ether-à-go-go-related gene (hERG) potassium channel (Q12809 whole entry, looked up): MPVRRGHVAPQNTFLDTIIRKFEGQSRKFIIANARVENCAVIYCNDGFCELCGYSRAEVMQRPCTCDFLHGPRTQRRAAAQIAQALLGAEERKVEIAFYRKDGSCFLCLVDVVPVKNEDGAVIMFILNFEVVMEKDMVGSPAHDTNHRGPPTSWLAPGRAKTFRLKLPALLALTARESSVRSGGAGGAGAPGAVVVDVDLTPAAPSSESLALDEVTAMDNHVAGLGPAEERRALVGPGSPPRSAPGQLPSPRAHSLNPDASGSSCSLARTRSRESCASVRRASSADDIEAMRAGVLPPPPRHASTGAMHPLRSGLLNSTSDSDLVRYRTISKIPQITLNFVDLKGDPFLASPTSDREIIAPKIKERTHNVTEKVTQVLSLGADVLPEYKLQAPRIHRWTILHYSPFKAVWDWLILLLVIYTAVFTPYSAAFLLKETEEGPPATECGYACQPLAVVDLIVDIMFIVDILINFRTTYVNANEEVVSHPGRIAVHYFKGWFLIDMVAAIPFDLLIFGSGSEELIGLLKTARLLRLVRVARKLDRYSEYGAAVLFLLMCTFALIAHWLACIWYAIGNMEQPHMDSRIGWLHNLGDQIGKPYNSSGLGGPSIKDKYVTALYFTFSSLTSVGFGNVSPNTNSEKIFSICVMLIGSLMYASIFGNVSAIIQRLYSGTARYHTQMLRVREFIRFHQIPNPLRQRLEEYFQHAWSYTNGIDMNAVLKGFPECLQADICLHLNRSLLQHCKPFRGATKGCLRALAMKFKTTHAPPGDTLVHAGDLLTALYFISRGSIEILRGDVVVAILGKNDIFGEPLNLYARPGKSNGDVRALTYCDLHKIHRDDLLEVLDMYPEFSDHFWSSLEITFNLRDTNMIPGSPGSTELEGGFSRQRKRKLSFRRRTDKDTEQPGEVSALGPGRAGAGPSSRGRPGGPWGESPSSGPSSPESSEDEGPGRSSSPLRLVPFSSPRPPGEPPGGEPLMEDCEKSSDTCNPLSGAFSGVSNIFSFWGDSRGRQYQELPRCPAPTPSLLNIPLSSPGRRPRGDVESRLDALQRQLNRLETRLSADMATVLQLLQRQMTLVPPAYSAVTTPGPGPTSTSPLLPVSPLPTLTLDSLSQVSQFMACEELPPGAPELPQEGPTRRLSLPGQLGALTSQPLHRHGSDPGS
For `FC(F)(F)c1nc(Sc2ncccc2C(F)(F)F)n[nH]1`, the “hERG current change (%, negative = inhibition) at 1uM” value was 8.97%. For `Cc1ccc(-n2c(CNc3ccc(F)cc3)nnc2SCC(=O)N2CCOCC2)cc1`, the “hERG current change (%, negative = inhibition) at 1uM” value was -4.09%. For `Fc1ccccc1/C=N/Nc1cc(N2CCCCC2)ncn1`, the “hERG current change (%, negative = inhibition) at 1uM” value was 8.39%. In the case of `CC(C)OP(=O)(OC(C)C)C(Nc1ccccc1)c1ccc2c(c1)OCO2` (centres unmarked), the “hERG current change (%, negative = inhibition) at 1uM” value was 6.83%. With `CCOc1cc(C(=S)N2CCOCC2)ccc1OC(=O)c1ccc(C)cc1` the “hERG current change (%, negative = inhibition) at 1uM” value was 9.09%. With `Cc1nc(SCc2ccc(Cl)c(Cl)c2)n[nH]1` the “hERG current change (%, negative = inhibition) at 1uM” value was 18.1%. With `CCN1CCCC1CN(Cc1cc2ccc(C)cc2[nH]c1=O)C(=S)Nc1ccc(OC)cc1OC` (centres unmarked) the “hERG current change (%, negative = inhibition) at 1uM” value was -34.7%. With `O=C(CN1C(=O)S/C(=C\c2cccc(Cl)c2)C1=O)NCCCn1ccnc1` the “hERG current change (%, negative = inhibition) at 1uM” value was -5.38%. With `CCOC(=O)c1ccc(S(=O)(=O)NCCN(CC)CC)cc1.Cl` the “hERG current change (%, negative = inhibition) at 1uM” value was 12.7%. `CC12CCCCC1NS(=O)(=O)OC2` (centres unmarked) was tested, and the “hERG current change (%, negative = inhibition) at 1uM” value was 12%. With `O=C(CSc1cn(CC(=O)N2CCCC2)c2ccccc12)NCC1CCCO1` (centres unmarked) the “hERG current change (%, negative = inhibition) at 1uM” value was 7.02%. With `O=C(Nc1ccc(CN2CCCCC2)cc1)c1ccc2c(c1)OCO2` the “hERG current change (%, negative = inhibition) at 1uM” value was -15.8%. `Cc1ccc(OCCCC(=O)N2CCOCC2)c(C)c1` was tested, and the “hERG current change (%, negative = inhibition) at 1uM” value was 11.2%. `CCOc1ccccc1N1C(=O)CC(=O)NC1=O` was tested, and the “hERG current change (%, negative = inhibition) at 1uM” value was 12.9%. With `Cc1sc2nc(C(C)C)nc(SCC(=O)NCc3ccco3)c2c1C` the “hERG current change (%, negative = inhibition) at 1uM” value was 11.6%. `C=CCSC1=N/C(=C\c2ccc(C)o2)C(=O)S1` was tested, and the “hERG current change (%, negative = inhibition) at 1uM” value was 7.01%. With `COc1ccc(C(=O)NC(=S)Nc2ccc(N3CCOCC3)c(Cl)c2)cc1[N+](=O)[O-]` the “hERG current change (%, negative = inhibition) at 1uM” value was 10.6%. In the case of `CCOC(=O)c1c(NC(=S)Nc2ccccc2)sc2c1CCN(CC)C2`, the “hERG current change (%, negative = inhibition) at 1uM” value was -80.2%. `Cc1ccccc1Nc1nc(N)nc(CSc2nnc3ccccn23)n1` was tested, and the “hERG current change (%, negative = inhibition) at 1uM” value was -2.15%. In the case of `Cc1nc2ccccn2c1P(=O)(N1CCCCC1)N1CCCCC1`, the “hERG current change (%, negative = inhibition) at 1uM” value was -1.27%. `CC(C)(C)OC(=O)N1CCC[C@H]1C(=O)N/N=C/c1ccc2ncccc2c1` was tested, and the “hERG current change (%, negative = inhibition) at 1uM” value was 5.82%. With `Nc1nc(-c2ccccc2)cc(-c2ccccc2)n1` the “hERG current change (%, negative = inhibition) at 1uM” value was 15.3%. In the case of `Cc1nc(CS(=O)(=O)c2ccc(Cl)cc2)cc(Sc2ccc(Cl)cc2)n1`, the “hERG current change (%, negative = inhibition) at 1uM” value was 3.33%. In the case of `Cc1ccc(C(C)C)c(OCC(=O)Nc2ccc(N3CCN(S(C)(=O)=O)CC3)cc2)c1`, the “hERG current change (%, negative = inhibition) at 1uM” value was -1.99%. For `O=C1c2ccccc2C(=O)N1OCc1c(F)cccc1Cl`, the “hERG current change (%, negative = inhibition) at 1uM” value was 7.8%. In the case of `Cc1onc(-c2ccccc2)c1C(=O)NCCc1ccncc1`, the “hERG current change (%, negative = inhibition) at 1uM” value was 8.66%. `CCOC(=O)c1ccc2nc(NC(C)=O)sc2c1` was tested, and the “hERG current change (%, negative = inhibition) at 1uM” value was 11.7%. For `CC1(C)CC(=O)C(N=Nc2ccc(Cl)cc2)=C(O)C1`, the “hERG current change (%, negative = inhibition) at 1uM” value was 13.3%. With `O=C(N1CCc2[nH]c3ccccc3c2C1)C(F)(F)F` the “hERG current change (%, negative = inhibition) at 1uM” value was 13.1%. For `CC(Cn1cncn1)C(=O)N1CCN(S(=O)(=O)c2ccccc2)CC1` (centres unmarked), the “hERG current change (%, negative = inhibition) at 1uM” value was 20.4%. In the case of `CC(=O)Nc1cc(NC(C)=O)cc(C(=O)OCC(=O)Nc2ccc(S(=O)(=O)NC3=NCCCCC3)cc2)c1`, the “hERG current change (%, negative = inhibition) at 1uM” value was 11.4%. In the case of `C/C(=N/NC(=O)c1cc2ccccc2cc1O)c1ccco1`, the “hERG current change (%, negative = inhibition) at 1uM” value was 10.1%. For `CCCOP(=O)(c1ccccc1)c1ccccc1`, the “hERG current change (%, negative = inhibition) at 1uM” value was 10.7%. In the case of `CN1C(=O)N(C)C(=O)C2(Cc3cc(NC(=O)c4ccc(F)cc4)ccc3N3CCCC32)C1=O` (centres unmarked), the “hERG current change (%, negative = inhibition) at 1uM” value was 4.33%. With `O=C(COc1coc(CN2CCN(c3ccccc3F)CC2)cc1=O)Nc1ccccc1` the “hERG current change (%, negative = inhibition) at 1uM” value was 20.4%. `COc1ccc(CNCc2cn(-c3cccc(F)c3)nc2-c2ccc(C)o2)cc1` was tested, and the “hERG current change (%, negative = inhibition) at 1uM” value was -3.51%. In the case of `CC1/C(=N/O)CC(c2ccccc2)NC1c1ccccc1` (centres unmarked), the “hERG current change (%, negative = inhibition) at 1uM” value was 11.7%. `COC(C/C=C\C(=O)[C@@H](C)OCc1ccccc1)OC` was tested, and the “hERG current change (%, negative = inhibition) at 1uM” value was 12%. `O=C(NCc1cccc(CNC(=O)C(=O)NCc2ccco2)c1)C(=O)NCc1ccco1` was tested, and the “hERG current change (%, negative = inhibition) at 1uM” value was -12.3%. `COc1ccc(-c2cc(C(F)(F)F)c(C#N)c(SCC(=O)Nc3ccc(C)cc3)n2)cc1` was tested, and the “hERG current change (%, negative = inhibition) at 1uM” value was -3.89%. `Cc1nc(N2CCN(C)CC2)c2c(C)c(C(=O)Nc3ccc(C)c(F)c3)sc2n1` was tested, and the “hERG current change (%, negative = inhibition) at 1uM” value was 4.92%. For `COCC(=O)N(Cc1cc2ccc(C)cc2[nH]c1=O)c1ccc(C)cc1C`, the “hERG current change (%, negative = inhibition) at 1uM” value was 13.9%. With `COC(=O)c1ccc(CNC(=O)Cn2nnnc2CN(C)C(C)C)cc1` the “hERG current change (%, negative = inhibition) at 1uM” value was 12.5%. For `O=C(Cc1ccccc1)N/N=C/c1ccc2c(c1)OCO2`, the “hERG current change (%, negative = inhibition) at 1uM” value was 7.35%.
